Results are given in words; binding and its absence hold for the method and conditions named. For some of these results: Binding seen in cells or lysates may run through a third protein. Some binding calls cover weakened binding; strength is not graded here. Where a sequence is shown, tags or fusion partners need not be part of it.

Chains of the proteins cited; added tags and fusions are not shown.
UniProt O35343: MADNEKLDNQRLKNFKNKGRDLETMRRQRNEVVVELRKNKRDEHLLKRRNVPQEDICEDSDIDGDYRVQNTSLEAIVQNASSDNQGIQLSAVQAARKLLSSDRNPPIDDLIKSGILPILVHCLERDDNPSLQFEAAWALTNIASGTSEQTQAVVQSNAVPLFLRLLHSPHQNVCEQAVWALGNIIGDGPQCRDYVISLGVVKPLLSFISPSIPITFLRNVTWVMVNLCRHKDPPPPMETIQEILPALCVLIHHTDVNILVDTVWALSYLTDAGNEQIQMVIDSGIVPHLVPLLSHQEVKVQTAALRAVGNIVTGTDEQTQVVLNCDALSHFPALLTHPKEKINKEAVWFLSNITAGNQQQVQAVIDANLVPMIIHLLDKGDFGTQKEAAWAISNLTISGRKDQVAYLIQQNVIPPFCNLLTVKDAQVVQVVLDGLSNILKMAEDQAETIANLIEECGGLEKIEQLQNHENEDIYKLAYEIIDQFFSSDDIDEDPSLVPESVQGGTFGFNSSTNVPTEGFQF
UniProt Q60960: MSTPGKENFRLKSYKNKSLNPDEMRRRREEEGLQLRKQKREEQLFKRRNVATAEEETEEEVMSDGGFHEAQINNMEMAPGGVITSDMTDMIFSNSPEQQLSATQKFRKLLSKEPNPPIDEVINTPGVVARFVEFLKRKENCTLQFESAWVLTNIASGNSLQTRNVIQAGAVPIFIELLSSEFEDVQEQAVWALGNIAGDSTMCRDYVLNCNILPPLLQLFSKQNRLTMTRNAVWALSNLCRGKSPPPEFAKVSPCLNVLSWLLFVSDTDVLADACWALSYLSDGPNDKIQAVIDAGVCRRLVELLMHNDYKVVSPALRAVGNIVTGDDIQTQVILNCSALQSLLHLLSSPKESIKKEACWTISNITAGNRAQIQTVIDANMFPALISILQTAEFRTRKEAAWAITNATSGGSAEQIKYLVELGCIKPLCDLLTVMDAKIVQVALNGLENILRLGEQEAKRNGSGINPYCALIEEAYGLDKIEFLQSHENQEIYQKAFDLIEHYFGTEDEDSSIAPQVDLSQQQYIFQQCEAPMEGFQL

The values that follow come from paper PMC5050407.

The target of assay [1] is GST-mouse importin α4 (KPNA4) (mouse) (UniProt O35343). The experiment in a line: pull-down; 50 pmol GST-importin α immobilised on Glutathione Sepharose 4B, 50 pmol test protein; 20 mM HEPES pH 7.3, 150 mM NaCl, 0.5% NP-40, 1 mM DTT, 1% BSA; 4 °C, 2 h; western blot with anti-GFP; both purified.
The target in assay [2] is GST-mouse importin α1 (KPNA1) (mouse) (UniProt Q60960). The description is as above.
The target of assay [3] is T1, TALDO1L, 3×FLAG- or 3×HA-tagged (transaldolase 1 long isoform) (not stated (human or mouse cDNA cloned)) (UniProt Q93092).
T1 sequence: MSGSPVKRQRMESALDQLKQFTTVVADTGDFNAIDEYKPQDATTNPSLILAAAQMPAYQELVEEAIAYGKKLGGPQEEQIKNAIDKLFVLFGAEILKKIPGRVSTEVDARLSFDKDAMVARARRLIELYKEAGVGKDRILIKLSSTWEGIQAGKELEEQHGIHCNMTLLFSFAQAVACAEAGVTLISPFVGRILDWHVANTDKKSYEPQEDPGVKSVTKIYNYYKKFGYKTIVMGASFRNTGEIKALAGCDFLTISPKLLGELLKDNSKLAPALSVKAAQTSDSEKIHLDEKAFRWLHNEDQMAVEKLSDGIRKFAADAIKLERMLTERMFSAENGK
Briefly: co-IP; 3×FLAG- and 3×HA-tagged TALDO1 isoforms co-expressed; lysates immunoprecipitated with anti-FLAG antibody, blotted with anti-HA and anti-FLAG.

Assay [4] addresses TALDO1S, 3×FLAG- or 3×HA-tagged (transaldolase 1 short isoform) (not stated (human or mouse cDNA cloned)) (UniProt Q93092). The assay is described as above.

B1: TALDO1L-GFP (transaldolase 1 long isoform fused to GFP) (protein, UniProt Q93092-1 1-337)
chain: MSGSPVKRQRMESALDQLKQFTTVVADTGDFNAIDEYKPQDATTNPSLILAAAQMPAYQELVEEAIAYGKKLGGPQEEQIKNAIDKLFVLFGAEILKKIPGRVSTEVDARLSFDKDAMVARARRLIELYKEAGVGKDRILIKLSSTWEGIQAGKELEEQHGIHCNMTLLFSFAQAVACAEAGVTLISPFVGRILDWHVANTDKKSYEPQEDPGVKSVTKIYNYYKKFGYKTIVMGASFRNTGEIKALAGCDFLTISPKLLGELLKDNSKLAPALSVKAAQTSDSEKIHLDEKAFRWLHNEDQMAVEKLSDGIRKFAADAIKLERMLTERMFSAENGK
In the case of B1, the binding result in assay [1] and in assay [2] was “binds” in each case.

B2: TALDO1L, 3×FLAG- or 3×HA-tagged (transaldolase 1 long isoform) (protein, UniProt Q93092-1 1-337)
chain: MSGSPVKRQRMESALDQLKQFTTVVADTGDFNAIDEYKPQDATTNPSLILAAAQMPAYQELVEEAIAYGKKLGGPQEEQIKNAIDKLFVLFGAEILKKIPGRVSTEVDARLSFDKDAMVARARRLIELYKEAGVGKDRILIKLSSTWEGIQAGKELEEQHGIHCNMTLLFSFAQAVACAEAGVTLISPFVGRILDWHVANTDKKSYEPQEDPGVKSVTKIYNYYKKFGYKTIVMGASFRNTGEIKALAGCDFLTISPKLLGELLKDNSKLAPALSVKAAQTSDSEKIHLDEKAFRWLHNEDQMAVEKLSDGIRKFAADAIKLERMLTERMFSAENGK
On to B2, for which the binding result in assay [3] is on record as “binds”.

B3: TALDO1S, 3×FLAG- or 3×HA-tagged (transaldolase 1 short isoform) (protein, UniProt Q93092-1 11-337)
chain: MESALDQLKQFTTVVADTGDFNAIDEYKPQDATTNPSLILAAAQMPAYQELVEEAIAYGKKLGGPQEEQIKNAIDKLFVLFGAEILKKIPGRVSTEVDARLSFDKDAMVARARRLIELYKEAGVGKDRILIKLSSTWEGIQAGKELEEQHGIHCNMTLLFSFAQAVACAEAGVTLISPFVGRILDWHVANTDKKSYEPQEDPGVKSVTKIYNYYKKFGYKTIVMGASFRNTGEIKALAGCDFLTISPKLLGELLKDNSKLAPALSVKAAQTSDSEKIHLDEKAFRWLHNEDQMAVEKLSDGIRKFAADAIKLERMLTERMFSAENGK
For the molecule B3, the binding entry in assay [4] and in assay [3] was “binds” each time.

B4: TALDO1S-GFP (transaldolase 1 short isoform fused to GFP) (protein, UniProt Q93092-1 11-337)
chain: MESALDQLKQFTTVVADTGDFNAIDEYKPQDATTNPSLILAAAQMPAYQELVEEAIAYGKKLGGPQEEQIKNAIDKLFVLFGAEILKKIPGRVSTEVDARLSFDKDAMVARARRLIELYKEAGVGKDRILIKLSSTWEGIQAGKELEEQHGIHCNMTLLFSFAQAVACAEAGVTLISPFVGRILDWHVANTDKKSYEPQEDPGVKSVTKIYNYYKKFGYKTIVMGASFRNTGEIKALAGCDFLTISPKLLGELLKDNSKLAPALSVKAAQTSDSEKIHLDEKAFRWLHNEDQMAVEKLSDGIRKFAADAIKLERMLTERMFSAENGK
On to B4, for which the binding result in assay [1] and in assay [2] was “no binding (tested: 50 pmol each)” each time.
